The shares of active, inactive and inconclusive entries below differ from those in the screen. Potencies of inconclusive entries are left out as doubtful fits. Calls of active or inactive are those of the source. Calls come from the whole dose curve; as a rule, active = well fitted cell-killing curve with a large enough effect; inconclusive = small, poorly fitted or top-dose-only effect; inactive = no such curve, though single readings can be large or run the other way.
experiment: qHTS of pediatric cancer cell lines to identify multiple opportunities for drug repurposing: Primary screen for OHS-50 cells (AID 1347103); conditions: OHS-50 osteosarcoma viability, CellTiter-Glo luminescence, 48 h; series mostly up to 57.3 µM; note: nearly all actives have a fitted effect of over 40% in size
In short: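 Cells (500-1,000/well) rested 5 h, then received compounds for 48 h; metabolically active cells were measured by CellTiter-Glo luminescence. Final concentrations spanned up to 46 µM (MIPE, 11-point) or 0.59 nM-46 µM (NPC, 8-point) in primary screens, 11-point in follow-ups.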
Potency is the fitted concentration of half-maximal effect; tags give direction and shape of the fitted curve.

Q: With C[C@@H]1CC2=CC(=O)CC[C@@H]2[C@H]2CC[C@@]3(C)[C@@H](CC[C@]3(C)O)[C@@H]21 as the molecule, how does the Potency read?
A: inconclusive [cytotoxic, single point]

Q: For CCOC(C(=O)OCCN(C)C)(c1ccccc1)c1ccccc1, which Potency is on record?
A: inconclusive [cytotoxic, partial curve, poor fit]

Q: For O=C1OC(CCN2CCCCC2)OC1(c1ccccc1)c1ccccc1 (stereo not given), which Potency is on record?
A: inactive

Q: For CCN(CC)C(C)C(=O)c1ccccc1 (stereo not given), which Potency is on record?
A: inactive

Q: Which Potency does the source give for Oc1ccc(Cl)cc1 here?
A: inactive

Q: With COc1ccc2[nH]cc(CCN(C(C)C)C(C)C)c2c1 as the molecule, how does the Potency read?
A: inconclusive [cytotoxic, partial curve]

Q: Which Potency does the source give for CCc1cc2c(s1)-n1c(C)nnc1CN=C2c1ccccc1Cl here?
A: inconclusive [cytotoxic, single point]

Q: With CC[C@]1(O)CC[C@H]2[C@@H]3CCC4=CCCC[C@@H]4[C@H]3CC[C@@]21C as the molecule, how does the Potency read?
A: inconclusive [cytotoxic, single point]

Q: For CC(=O)NC1CCSC1=O (stereo not given), which Potency is on record?
A: inactive

Q: Which Potency does the source give for CCN(CC)Cc1nccn1-c1ccc([N+](=O)[O-])cc1C(=O)c1ccccc1Cl here?
A: inconclusive [cytotoxic, partial curve]

Q: For CN1CCc2cc(Cl)c(O)cc2[C@H]2c3ccccc3CC[C@@H]21, which Potency is on record?
A: inconclusive [cytotoxic, partial curve]

Q: Which Potency does the source give for Oc1ccc(Cl)cc1Cc1ccccc1 here?
A: inconclusive [cytotoxic, single point]

Q: For O=C1CN2CCOC2(c2ccccc2Cl)c2cc(Cl)ccc2N1 (stereo not given), which Potency is on record?
A: inconclusive [cytotoxic, partial curve]

Q: Which Potency does the source give for O=C(O)c1ccc2[nH]cc(CCCCN3CC=C(c4ccccc4)CC3)c2c1 here?
A: inconclusive [cytotoxic, partial curve, poor fit]

Q: Which Potency does the source give for Cc1cccc(C)c1NC1=NCCCS1 here?
A: inactive

Q: Which Potency does the source give for CC1(C)C(C=C(Cl)Cl)C1C(=O)OC(C#N)c1cccc(Oc2ccccc2)c1 (stereo not given) here?
A: inactive

Q: For NC1CC1c1ccccc1 (stereo not given), which Potency is on record?
A: inactive

Q: For Cc1ccc(N=CN(C)C=Nc2ccc(C)cc2C)c(C)c1, which Potency is on record?
A: inactive

Q: Which Potency does the source give for CN1C(=O)COc2c(C(=O)NC3CN4CCC3CC4)cc(Cl)cc21 (stereo not given) here?
A: inconclusive [cytotoxic, partial curve]

Q: Which Potency does the source give for c1ccc(N2CCNCC2)cc1 here?
A: inactive

Q: With Clc1cccc(N2CCNCC2)c1 as the molecule, how does the Potency read?
A: inconclusive [cytotoxic, partial curve, poor fit]

Q: Which Potency does the source give for C[C@]12CC[C@@H]3c4ccc(OC(=O)N(CCCl)CCCl)cc4CC[C@H]3[C@@H]1CC[C@@H]2O here?
A: inconclusive [cytotoxic, single point]

Q: For CCC(=O)O[C@H]1CC[C@H]2[C@@H]3CCC4=CC(=O)CC[C@]4(C)[C@H]3CC[C@]12C, which Potency is on record?
A: inconclusive [cytotoxic, single point]

Q: Which Potency does the source give for CCOCCOC(C)=O here?
A: inactive

Q: For C[C@]12CCC(=O)C=C1CC[C@@H]1[C@@H]2CC[C@]2(C)C(=O)CC[C@@H]12, which Potency is on record?
A: inconclusive [cytotoxic, partial curve, poor fit]

— PubChem BioAssay (NCATS)
